This is an account of results in PubChem BioAssay AID463173 (ICCB-Longwood Screening Facility, Harvard Medical School, 2010).

The whole screen tested about 52,000 compounds, of which about 1,700 (3.3%) were called active. Cut-off read from the data, not from the text of the source: active = survival mostly below about 52% (no sharp cut-off); inactive = mostly above about 56%. The list shows a part of the results.

The subject of the experiment is Wild type. In words: growth inhibition of S. aureus wild type versus tarO mutant, primary screen, teichoic acid synthesis inhibitors, RN4220, OD600 (AID 463173). The note with it: S. aureus RN4220 wild type/DeltatarO growth, OD600, 18 h, stronger effect = lower value, screened at 18.75 µg/mL (by protocol).
For `Cc1ccc(S(=O)(=O)c2nc(-c3cccc(Cl)c3)oc2NCc2ccccc2)cc1`, the survival is inactive: 121%.
To `Cc1cc(C)c(NC(=O)Cn2c(=O)n(Cc3ccc(C(=O)NCc4ccco4)cc3)c(=O)c3sccc32)c(C)c1` belongs inactive: 148%; to `Cc1nnc(N2CCCC(C(=O)NCCc3ccccc3)C2)c2nn(-c3ccccc3)c(C)c12` (configuration not stated), inactive: 69%; to `Cc1ccn2cc(-c3ccc(C)c(NS(=O)(=O)c4ccc(Cl)cc4)c3)nc2c1`, inactive: 58%.
Next, `CN(C)CCNC(=O)c1ccc2c(c1)N(Cc1c(F)cccc1Cl)C(=O)c1ccccc1S2`: inactive: 105%; `CCOC(=O)Cn1c(=O)oc2cc(S(=O)(=O)N3CCN(c4cc(C)ccc4C)CC3)ccc21`: inactive: 81%.
To `COC(=O)c1cc2oc3ccccc3c2n1CC(=O)Nc1ccc(C)cc1C` belongs inactive: 86%.
`CCOC(=O)c1c(NC(=O)c2ccc(C)c(C)c2)sc2c1CCCCC2`: the survival is active: 0%.
Next, `Cn1cnc(S(=O)(=O)N2CCCC(C(=O)Nc3ccc(OC(F)(F)F)cc3)C2)c1` (configuration not stated): inactive: 19%; `CCc1ccc(C(=O)NC2=NC(c3ccccc3F)CC(=O)N2)cc1` (configuration not stated): inactive: 166%.
Next, `CCC(=O)N1CCc2cc(S(=O)(=O)NC(C(=O)Nc3cc(OC)cc(OC)c3)C(C)C)ccc21` (configuration not stated): inactive: 87%; `COCCCNC(=O)c1ccc2nc(CCc3ccccc3)oc2c1`: inactive: 88%.
Next, `N#C/C(=C/c1ccc(-c2ccc(Br)cc2)o1)C(=O)NC1CCCCC1`: inactive: 127%.
`CCCN1CCN(CCCNC(=O)c2c(C)nn(-c3ccc(F)cc3)c2-n2cccc2)CC1`: the survival was inactive: 78%.
To `CCOc1ccc(CNC(=O)Cn2c(=O)c3cccn3c3ccccc32)cc1` belongs inactive: 95%.
Next, `Cc1c(Cl)ccc2sc(N3CCN(C(=O)CS(=O)(=O)c4ccccc4)CC3)nc12`: inactive: 124%.
Next, `CCOc1ccc(OCC)c(NS(=O)(=O)c2ccc3c(c2)CCN3C(=O)C2CCC2)c1`: inactive: 71%; `O=C(Cc1c(C(=O)O)[nH]c2ccccc12)Nc1cccc(C(F)(F)F)c1`: inactive: 69%; `CC(C)c1ccc(-c2nnn(CC(=O)OC3CCCCC3)n2)cc1`: inactive: 111%.
Take `CC(C)(C)OC(=O)N1CCC2(CC1)C(C#N)=C(N)OC1=C2C(=O)CCC1`: the survival was inactive: 104%.
Next, `CN1C(=O)/C(=C/c2ccco2)SC1=Nc1cccc(C(=O)O)c1`: inactive: 100%; `Cc1ccc(OCC(=O)Nc2ccc(-c3nc4ccccc4o3)cc2)c(C)c1`: inactive: 90%; `CCn1cc2nc(SCc3cccc(C(F)(F)F)c3)n(Cc3ccc(C)cc3)c(=O)c2n1`: inactive: 83%.
To `O=C(NCc1ccc(Cl)cc1Cl)c1cccc(N2CCCS2(=O)=O)c1` belongs inactive: 69%.
Take `COc1ccc(-c2cc(C(=O)Nc3cnn(Cc4ccc(F)cc4)c3)no2)cc1OC`: the survival is inactive: 75%.
To `Cc1cc(Br)ccc1NC(=O)C1CC(O)CN1C(=O)OCc1ccccc1` (configuration not stated) belongs inactive: 103%; to `Cc1cc(F)ccc1NC(=O)c1c(C)oc2c1C1=NCCN1C=N2`, inactive: 135%.
Next, `CCc1ccccc1NC(=O)CSc1nc2c(c(=O)[nH]1)CN(Cc1ccccc1OC)CC2`: inactive: 86%; `COc1cc2c(cc1NC(=O)C(C)Oc1ccccc1)oc1ccccc12` (configuration not stated): active: 1%.
For `COc1ccccc1-n1c(=O)n(C)c2c(C(N)=O)nc(-c3cc(OC)c(OC)c(OC)c3)nc21`, the survival was inactive: 119%.
To `Cc1ccc(C)c(Cn2c(=O)n(CCCC(=O)NCc3ccc4c(c3)OCO4)c(=O)c3sccc32)c1` belongs inactive: 88%; to `O=C1CCCS(=O)(=O)CC1`, inactive: 102%; to `CCC1CN(C(=O)Nc2cc(Cl)ccc2C(=O)OC)c2ccccc2S1` (configuration not stated), inactive: 152%.
To `COc1ccc(OC)c(NC(=O)COCc2cc(-c3ccc(F)cc3)on2)c1` belongs inactive: 74%; to `CN(C(=O)c1nn(C)c2c1CS(=O)(=O)c1ccccc1-2)c1cccc(Cl)c1`, inactive: 82%.
To `CCCSc1ncc(Cl)c(C(=O)N2CCN(c3ccc(OC)cc3)CC2)n1` belongs inactive: 85%.
Consider `CC(C)Oc1ccc(C(=O)N2CCCCC2CCN2CCCCC2)cc1` (configuration not stated), for which the survival was inactive: 86%.
To `CCOC(=O)c1ccc(NC(=O)N2C3CCC2CC(NC(=O)NC24CC5CC(CC(C5)C2)C4)C3)cc1` (configuration not stated) belongs inactive: 116%; to `CCC(C)c1ccc(OCC(=O)Nc2ccc(-c3nc4ncccc4o3)cc2)cc1` (configuration not stated), inactive: 60%.
To `CCOC(=O)c1ccc(NC(=O)c2c(NCc3cccc(OC)c3OC)sc3c2CCC3)cc1` belongs inactive: 68%; to `CCOC(=O)c1sc(N2C(=O)c3oc4ccc(F)cc4c(=O)c3C2c2ccc(O)cc2)nc1C` (configuration not stated), inactive: 73%; to `CCCOc1ccc(CNC(=O)c2cc3ccccn3n2)cc1`, inactive: 136%.
Next, `CCc1cccc(NC(=O)CCNS(=O)(=O)c2ccc3c(c2)CCN3C(C)=O)c1`: inactive: 76%.
As to `Cc1ccc(/C=C/c2onc(C)c2S(=O)(=O)N2CCC(C(=O)N(CCC(C)C)Cc3ccco3)CC2)cc1`, the survival is inactive: 86%.
To `COc1ccc(N2CCN(CCCNC(=O)c3ccc4nc(N5CCCCC5)sc4c3)CC2)cc1` belongs inactive: 79%; to `Cc1ccc(N2C(=O)CSC23C(=O)N(CC(=O)Nc2ccccc2F)c2ccccc23)cc1C` (configuration not stated), inactive: 73%; to `Cc1ccc(CNC(=O)c2ccc(CS(=O)(=O)c3ccccc3C)o2)cc1`, inactive: 76%.
To `CCOC(=O)CSc1nc2cc3c(cc2c(=O)n1CCCCCC(=O)NCc1ccc(OC)cc1)OCO3` belongs inactive: 71%; to `CN(C)c1ccc(CNC(=O)c2ccc3nc(CCc4ccccc4)oc3c2)cc1`, inactive: 78%; to `COc1ccccc1NC(=O)Cn1c(=O)n(-c2ccc(C)cc2)c(=O)c2c1cnn2C`, inactive: 83%.
Next, `CCOc1ccc(NC(=O)c2oc3ccccc3c2NC(=O)c2cc3ccccc3o2)cc1`: inactive: 86%.
Take `COc1ccc(-n2nc(C(=O)Nc3cccc(Cl)c3)c3c4ccccc4n(C)c3c2=O)cc1Cl`: the survival was inactive: 88%.
Turning to `CC(C)(C)c1ccc(-c2nnc(-c3ccccc3NC(=O)c3ccc(F)cc3F)o2)cc1`, the survival was inactive: 144%.
To `O=C(Nc1ccc(Br)cc1)c1cccc(S(=O)(=O)N2CCc3ccccc32)c1` belongs inactive: 127%.
Consider `CCCCCCC1CCC(C(=O)NC(C(=O)O)C(C)C)CC1` (configuration not stated), for which the survival is inactive: 59%.
As for `O=C(CSc1oc(-c2ccco2)nc1S(=O)(=O)c1ccc(Cl)cc1)Nc1ccc(F)cc1`, the survival is inactive: 94%.
For the compound `CC(C)c1ccc(NC(=O)CSC2=Nc3ccccc3C3=NC(CC(=O)NC4CCCCC4)C(=O)N23)cc1` (configuration not stated), the survival was inactive: 83%.
To `C=CCNC1CCS(=O)(=O)C1` (configuration not stated) belongs inactive: 108%; to `COc1ccc(-c2nc3ccccc3n3c(-c4ccccc4)c4c(=O)n(C)c(=O)n(C)c4c23)cc1`, inactive: 80%; to `COc1ccc2c(Sc3ccc(Cl)cc3)c(C(=O)N3CCCCC3)[nH]c2c1`, inactive: 33%.
Next, `CC(C)CCNS(=O)(=O)c1ccc(N2CCCCS2(=O)=O)cc1`: inactive: 85%; `CCOc1ccc(C(=O)c2cn(CC(=O)Nc3ccc4c(c3)OCCO4)c3ccc(F)cc3c2=O)cc1`: inactive: 90%; `C=CCN(C(=O)c1ccc2c(c1)nnn2C)c1ccccc1`: inactive: 105%.
Next, `COc1ccc(NC(=O)Cn2c(=O)c3cc(Cl)ccc3n3nncc23)cc1`: inactive: 111%.
Regarding `Cc1cccc(C)c1OC(=O)CSc1nnc(CNC(=O)c2ccccc2)o1`, the survival is inactive: 100%.
To `CN(C(=O)CSc1nc(C2CCCC2)nc2c1c(=O)n(C)c(=O)n2C)c1ccccc1` belongs inactive: 128%; to `CC1CCN(C(=O)CSc2nnc(-c3ccccc3)o2)CC1`, inactive: 69%; to `COCCCNC(=O)CSc1nc2cc3c(cc2c(=O)n1CCCCCC(=O)NCc1ccc(OC)cc1)OCO3`, active: 1%.
Next, `CC(C)COC(=O)Cn1nnc2sc(-c3ccccc3)cc2c1=O`: inactive: 88%.
Consider `O=C(CSc1oc(-c2ccccc2)nc1S(=O)(=O)c1ccc(Cl)cc1)NC1CCCCC1`, for which the survival was inactive: 72%.
To `CCCc1nnc(NC(=O)Cc2coc3ccc(C(C)C)cc23)s1` belongs inactive: 99%; to `COc1ccc(-n2nnc(-c3nsc(NC(=O)c4ccc(C)c(C)c4)n3)c2C)cc1Cl`, inactive: 134%.
To `CC1CCN(C(=O)c2ccc3c(c2)N(Cc2ccccc2)C(=O)c2ccccc2S3(=O)=O)CC1` belongs inactive: 96%.
Next, `CN(C)c1ccc(N/C=C(\C#N)c2nc3ccccc3[nH]2)cc1`: inactive: 118%; `Cc1ccc(NC(=O)c2cnc(SCC(=O)N3CCOCC3)n(C)c2=O)cc1C`: inactive: 75%.
Turning to `O=C(CN1CCCN(S(=O)(=O)c2ccc(Br)cc2)CC1)Nc1cccc(C(F)(F)F)c1`, the survival is inactive: 64%.
Turning to `Cc1cc(C)c(NS(=O)(=O)c2cc(-c3onc(C)c3C)ccc2C)c(C)c1`, the survival is inactive: 70%.
Next, `CC(=O)n1c(=O)oc2cc(Cl)ccc21`: inactive: 110%; `O=C(Nc1cccc(C(F)(F)F)c1)c1cc(S(=O)(=O)N2CCCC2)c[nH]1`: inactive: 88%.
Next, `COc1ccccc1-c1noc(-c2ccc(NCc3ccco3)c([N+](=O)[O-])c2)n1`: inactive: 97%; `S=C1NNC2(CC3CC2C2CCCC32)NN1` (configuration not stated): inactive: 111%; `Cc1ccc(S(=O)(=O)N2CCCC(NC(=O)NCc3ccco3)C2)cc1` (configuration not stated): inactive: 114%.
Next, `Cc1cccc(N2CCN(C(=O)c3ccc4c(Cl)c5c(nc4c3)CCCC5)CC2C)c1` (configuration not stated): inactive: 80%; `COc1ccc(NC(=O)Cn2nnc(C(=O)NCc3ccc4c(c3)OCO4)c2N)cc1`: inactive: 90%.
Turning to `O=C(NCc1ccccc1Cl)c1cnc(N2CCOCC2)c2ccccc12`, the survival was inactive: 70%.
For the compound `Cc1ccc(-c2cc(-c3coc4ccc(Cl)cc4c3=O)c3c(n2)-c2ccccc2OC3)cc1`, the survival is inactive: 68%.
Next, `CCN(Cc1ccccc1)Cc1c(O)ccc2c(=O)c(-c3ccc(Cl)cc3)coc12`: inactive: 86%.
